# Source: PubChem BioAssay AID686978 (National Center for Advancing Translational Sciences (NCATS), 2013)
# In all, about 420,000 compounds went through this assay and about 64,000 (15%) were called active. This list was built around the results that the source calls inconclusive (neither active nor inactive); the mix of calls is not that of the screen. Calls follow the shape of the dose curve; as a rule, active = well fitted inhibition curve with a large enough effect; inconclusive = small, poorly fitted or top-dose-only effect; inactive = flat fitted curve, though single readings scatter. No potency is given beside an inconclusive call; the fits are too rough.
# Assay: qHTS for Inhibitors of human tyrosyl-DNA phosphodiesterase 1 (TDP1): qHTS in cells in absence of CPT; also: nearly all actives have a fitted effect of over 55% in size
# Conditions: DT40 Tdp1-/- hTDP1 cells, no CPT, ATP luminescence, 48 h; activity change, negative = growth inhibition: at 46.2 µM (top of the series) unless noted
# Summary of the method: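 Luminescent ATP content (CellTiter-Glo) served as the growth readout. Knockout chicken DT40 cells expressing human TDP1 were exposed to compounds without camptothecin for a minimum 48 hr at 37 °C.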
# % is scaled to controls: 0 for no effect and ±100 for the full control effect; potency is read from the fitted curve at half-maximal effect; tags tell the direction and shape of the fitted curve.
Compound,Potency,"activity change, negative = growth inhibition"
CCOc1cc(/C=N/NC(=O)c2nnn(-c3nonc3N)c2C)ccc1OCc1ccc(F)cc1,inactive,
Cn1c2c(c(=O)n(C)c1=O)C(C(F)(F)F)(C(F)(F)F)N=C(CCC1CCCCC1)N2,active: 3.66 µM,
COC(=O)c1ccc2nc(-c3ccc(F)cc3)c(Cc3ccccc3)n2c1,active: 23.1 µM,
CCc1cc(-c2nnn(CCC3COCCO3)c2C(C)(C)O)ccc1-c1cn(CCc2c[nH]c3ccccc23)nn1 (configuration not stated),active: 11.6 µM,
COCCC(=O)N1CCC(Oc2ccc(C(=O)NCCC3=CCCCC3)cc2)CC1,"inconclusive [inhibitor, single point]",
COc1ccccc1C(=O)NCC(=O)N/N=C/c1cc(Br)ccc1OCc1ccccc1,active: 23.1 µM,
COc1ccccc1C(=O)CN1C(=O)NC2(CCCc3ccccc32)C1=O (configuration not stated),"inconclusive [inhibitor, single point]",
O=C(N/N=C/c1cn(-c2ccccc2)nc1-c1cccs1)c1ccccc1F,inactive,
Cc1cccc(-c2nnc(SCC(=O)N3CCCCC3)o2)c1,"inconclusive [inhibitor, single point]",
O=C(Nc1ccccc1F)c1oc2ccccc2c1NC(=O)c1c(F)cccc1F,"inconclusive [inhibitor, single point]",
COc1ccccc1NS(=O)(=O)c1ccc(C)c(C(=O)NCC(c2cccs2)N2CCOCC2)c1 (configuration not stated),,inconclusive: -30.9% [inhibitor]
COC(=O)c1cc(NC(=O)Cc2ccccc2[N+](=O)[O-])cc(C(=O)OC)c1,inactive,
Cc1ccc(NC(=O)Cc2c(O)c3ccccc3[nH]c2=O)c(C)c1,inactive,
CCn1c(=O)n(CC)c2cc(N3CCCC3)c(NC(=O)Nc3cc(C)cc(C)c3)cc21,active: 18.4 µM,
COc1ccccc1N1CCN(C(=O)c2ccc(Nc3nc4ccccc4n4nnnc34)cc2)CC1,"inconclusive [inhibitor, full curve, poor fit]",
CCCC(C)NC(=O)c1cc(S(=O)(=O)N2CCCCCC2)ccc1OC (configuration not stated),"inconclusive [inhibitor, single point]",
Cc1ccc(S(=O)(=O)N(C(=O)c2ccco2)c2cc3sc(=O)oc3c3ccccc23)cc1,active: 2.59 µM,
CCOCCn1c(C)c(C(=O)OCC)c2cc(O)c3ccccc3c21,"inconclusive [inhibitor, partial curve]",
COC(=O)c1ccccc1NC(=O)c1ccc(=O)n(Cc2cccc(C)c2)c1,"inconclusive [inhibitor, single point]",
Cc1ccc(CCNC(=O)CSCc2nc(-c3ccc(C)cc3)oc2C)cc1,"inconclusive [inhibitor, single point]",
NC(=O)COC(=O)CCCc1c[nH]c2ccccc12,inactive,
CCCN(Cc1ccc(C)cc1)C(=O)c1ccc(CNS(=O)(=O)c2ccc(C(C)=O)cc2)cc1,"inconclusive [inhibitor, single point]",
Cc1ccc(CNC(=O)c2nn(C)c3c2CSc2ccc(C)cc2-3)cc1,"inconclusive [inhibitor, single point]",
COc1cc(NC(=O)C2CCC(CNS(=O)(=O)c3csc(C(N)=O)c3)CC2)cc(OC)c1 (configuration not stated),,inconclusive: -30.9% [inhibitor]

Compound,Potency,"activity change, negative = growth inhibition"
COc1cc(/C=N/NC(=O)CN2CCCCC2)ccc1OCc1ccccc1,inactive,
CCOc1ccc(N(CC(=O)Nc2ccc(Br)cc2)S(C)(=O)=O)cc1,"inconclusive [inhibitor, single point]",
CCN(CC)S(=O)(=O)c1ccc(Cl)c(NC(=O)c2cc(Cl)ccc2Cl)c1,"inconclusive [inhibitor, single point]",
Cc1c(C(=O)Nc2cccc(-c3nc4ccccc4s3)c2)oc2ccc(F)cc12,active: 14.6 µM,
CN1C(=O)/C(=C\c2cc(N=Nc3ccccc3)ccc2O)SC1=S,active: 23.1 µM,
CC(C)c1ccc(NC(=O)Cn2c3ncccc3c(=O)n2-c2ccccc2)cc1,"inconclusive [inhibitor, single point]",
O=C(COC(=O)c1ccc(O)cc1)Nc1ccccc1-c1ccccc1,active: 20.6 µM,
Cc1ccc(C(=O)C(C)OC(=O)c2n[nH]c(=O)c3ccccc23)cc1 (configuration not stated),inactive,
CS(=O)(=O)/C(C#N)=C/c1cccn1S(=O)(=O)c1ccc([N+](=O)[O-])cc1,"inconclusive [inhibitor, single point]",
COc1ccc(NC(=O)c2ccc(N(C)S(C)(=O)=O)cc2)cc1OC,inactive,
COc1ccc(-c2ccc3oc(-c4ccc(OC)cc4)c(C#CCO)c3c2)cc1,"inconclusive [inhibitor, single point]",
COc1ccc(CCN2CC(C(=O)NCCc3ccccc3C(F)(F)F)CCC2=O)cc1 (configuration not stated),inactive,
O=C(NCCc1ccco1)c1nn(Cc2ccccc2)c(=O)c2ccccc12,"inconclusive [inhibitor, single point]",
CCOc1ccc(-c2nnc(SCC(=O)Nc3cc(C)ccc3OC)o2)cc1,"inconclusive [inhibitor, partial curve]",
C=CCN(Cc1nc(-c2ccccc2)no1)C(=O)c1ccc2c(c1)OCO2,inactive,
COc1ccc(-c2cc3nc4c(c(N5CCC6(CC5)OCCO6)n3n2)CCC4)cc1,active: 25.9 µM,
Cn1c(=O)c2c(nc(NCC3CCCO3)n2C)n(C)c1=O (configuration not stated),inactive,
Cc1cc(C)c(OCCCCn2cnc3ccccc3c2=O)c(C)c1,"inconclusive [inhibitor, single point]",
CCN(CC)S(=O)(=O)c1ccc2c(c1)c(=O)c(C(=O)N1CCN(c3cccc(Cl)c3)CC1)cn2C,"inconclusive [inhibitor, single point]",
Cc1cc(=O)oc2cc(OCC(=O)N3CCN(C(=O)C4COc5ccccc5O4)CC3)ccc12 (configuration not stated),"inconclusive [inhibitor, partial curve]",
CN(C)CCNC(=O)c1csc(Nc2cccc3ccccc23)n1,"inconclusive [inhibitor, single point]",
C=C(C)CNC(=S)NNC(=O)c1cc(C)oc1C,inactive,
CCc1ccccc1NC(=O)CN1C(=O)C2CCCN2c2ncc(Cl)cc21 (configuration not stated),"inconclusive [inhibitor, single point]",
CCc1nc2c(OCc3cc(Cl)cc(Cl)c3)cccn2c1N(C)C(=O)Nc1ccccc1OC,"inconclusive [inhibitor, single point]",

Compound,Potency,"activity change, negative = growth inhibition"
COc1ccccc1NC(=O)c1ccc2nsnc2c1,inactive,
Cn1cnnc1-c1cccc(NC(=O)c2cc(F)c(F)cc2Cl)c1,inactive,
COc1ccccc1NC(=O)N(Cc1cccs1)Cc1cc2cc3c(cc2[nH]c1=O)OCO3,active: 16.4 µM,
COc1ccc(-c2csc(Nc3ccccc3)[n+]2Cc2ccccc2)cc1,active: 14.6 µM,
CN(C)c1ccc(NC(=S)N2CCN(c3ncc(C(F)(F)F)cc3Cl)CC2)cc1,"inconclusive [inhibitor, partial curve]",
O=C(CCn1cnnn1)Nc1ccc(Cl)c(Cl)c1,"inconclusive [inhibitor, single point]",
COc1ccc(NC(=O)CCNS(=O)(=O)c2ccc3c(c2)CC(C)N3C(=O)C2CC2)cc1 (configuration not stated),inactive,
Nc1cc(Nc2ccccc2)ccn1,"inconclusive [inhibitor, partial curve]",
CCOC(=O)c1cccc(Nc2nc(C)cc(C)n2)c1,inactive,
CCOc1ccccc1CNC(=O)C1CCN(c2nc3ccccc3nc2C(F)(F)F)CC1,,inconclusive: -20.7% [inhibitor]
Cc1cc(=O)[nH]c2nnc(-c3ccc(Br)cc3)n12,inactive,
COc1ccc(/C=C/c2nc(-c3ccccc3O)n[nH]2)cc1OC,"inconclusive [inhibitor, single point]",
Oc1ccccc1-c1nc(N2CCN(Cc3ccccc3)CC2)c2ccccc2n1,"inconclusive [inhibitor, single point]",
CCc1ccc(C(=O)c2cn(CC(=O)Nc3ccc4c(c3)OCO4)c3ccc(F)cc3c2=O)cc1,"inconclusive [inhibitor, partial curve]",
Fc1ccc(COc2ccc(Br)cc2CNCc2ccncc2)cc1,"inconclusive [inhibitor, single point]",
Cc1cccc(C2N=C(N)Nc3nc4ccccc4n32)c1 (configuration not stated),inactive,
O=C(OCc1c(F)cccc1Cl)c1cc([N+](=O)[O-])ccc1N1CCOCC1,"inconclusive [inhibitor, full curve]",
Cc1c(C(=O)Oc2cccc3cccnc23)oc2ccccc12,"inconclusive [inhibitor, single point]",
O=C(Cc1ccccc1)Nc1cccc(-c2nnc(-c3ccco3)o2)c1,active: 14.6 µM,
C=CC[C@@H](Cc1ccc(F)cc1)C(=O)OC[C@@H]1CCCN1C(=O)[C@H](CC=C)CC(=O)N(CCO)Cc1ccccc1,active: 18.4 µM,
CCOc1ccc(Nc2oc(-c3cccc(Cl)c3)nc2C#N)cc1,"inconclusive [inhibitor, full curve, poor fit]",
CC(=O)N(C)c1ccc(NC(=O)CCN2C(=O)c3ccccc3C2=O)cc1,inactive,
COc1ccc(C(=O)Nc2nc(-c3ccc(OC)cc3)c(-c3ccc([N+](=O)[O-])cc3)s2)cc1,active: 9.2 µM,
Clc1ccc(-n2ncc3c(NCCN4CCOCC4)ncnc32)cc1,"inconclusive [inhibitor, full curve, poor fit]",
